Data published in patent US20250297021A1 (SHANDONG SIMCERE BIOPHARMACEUTICAL CO NO 1, published 2025).

T1: human BCMA on cells (human, UniProt Q02223 1-184)
T1 construct: whole, on cells; also called H929 cells; U266 cells
T1 sequence (looked up): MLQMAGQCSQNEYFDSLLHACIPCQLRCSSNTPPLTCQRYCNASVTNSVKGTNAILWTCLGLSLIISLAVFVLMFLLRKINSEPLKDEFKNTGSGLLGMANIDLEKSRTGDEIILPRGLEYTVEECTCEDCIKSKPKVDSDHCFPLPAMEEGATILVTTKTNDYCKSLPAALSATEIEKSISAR

T2: human BCMA-His protein (human, UniProt Q02223 1-54)
T2 construct: bought; also called human BCMA protein; not shown: His tag
T2 sequence (looked up): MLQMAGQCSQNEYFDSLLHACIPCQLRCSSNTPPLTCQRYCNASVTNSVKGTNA

B1: BCMA-mAb01 (Fc fusion)
scFv: EVKLVESGGGLVQPGGSLKLSCAASGFTFSDFYMYWVRQTPEKRLEWVAYITNGGENTYFPDTVKGRFTISRDNAKNTLYLQMSRLKSEDTAMYYCARQNPFYYYDSNYDYAMDFWGQGTSVTVSSGGGGSGGGGSGGGGSDVVMTQTPLTLSVTIGQPASISCKSSQSLLYSNGKTYLSWLFQRPGQSPKRLIYLVSELDSGVPDRFTGSGSGTDFTLKISRVEAEDLGIYYCVQGTHFPHTFGGGTKLEIK[human IgG1 Fc with C220S (EU numbers) not spelt out]
B2: BCMA-mAb02 (Fc fusion)
scFv: EVQLVESGGDLVQPGESLKLSCESNAYEFPSYDMSWVRKTPEKRLELVAAINSDGGITYYPDTMERRFIISRDNTKKTLYLQMSSLRSEDTALYYCARHGYGGGAYVLDYWGQGTSVTVSSGGGGSGGGGSGGGGSDIVMTQSQKFMSTTVGDRVRITCKASQNVGTAVAWYQQKPGQSPKVLIYSASSRYTGVPDRFTGSGSGTDFTLTINNMQSEDLADYFCQQYSNYHLTFGTGTKLELK[human IgG1 Fc with C220S (EU numbers) not spelt out]
B3: BCMA-mAb03 (Fc fusion)
scFv: QIPLVQSGPELKKPGETVKISCKASGYTFTNYAMTWVKQAPGKGLKWMGWIDTYSGVPTYADDFKGRFAFSLETSATTAYLQINNLKNEDTATYFCARVGVYGGYDTLDSWGQGTSVTVSSGGGGSGGGGSGGGGSDIQMTQTTSSLSASLGDRVTISCSASQGISNHLNWYQQKPDGTVKLLIYYTSSLHSGVPSRFSGSGSGTDYSLTISNLEPEDFATYYCQQYNNLPWTFGGGTKLEIK[human IgG1 Fc with C220S (EU numbers) not spelt out]
B4: BCMA-mAb04 (Fc fusion)
scFv: QVQLQQSGAELARPGASVDLSCKASGYSFTSYGISWVKLRTGQGLEWIGEIYPRDDITYYNEKFKGKTTLTADKSSSTAYMELRSLTSEDSAVYFCARHDYYYVNSVSAMDYWGQGTSVTVSSGGGGSGGGGSGGGGSDIVMSQSPSSLAVSVGEKVTMSCKSSQSLLYSSNQKNYLAWYQQKPGQSPKLLIYWASTRYSGVPDRFTGSGSGTDFTLTVSSVRAEDLALYYCQQYYIYPWTFGGGTKLEIK[human IgG1 Fc with C220S (EU numbers) not spelt out]
B5: BCMA-mAb05 (Fc fusion)
scFv: QGQMQQSDAELVKPGASVQISCKASGYMFTDHTFHWMRQRPEQGLEWIGYIYPRDDNTKYNEKFKGKATLTADKSSSTAYIHLNSLTSEDSAVYFCARAGYYGSSHAMDYWGQGTSVTVSSGGGGSGGGGSGGGGSDIVMTQSHKFMSTSVGDRVSITCKASQDVSTAVAWYQQKPGQSPRLLIYSASSRYTGVPDRFTGSGSGTDFTFTISSVQTEDLAVYYCQQLYSTPWTFGGGTKLEIK[human IgG1 Fc with C220S (EU numbers) not spelt out]
B6: BCMA-mAb06 (Fc fusion)
scFv: EVKLLQSGGGLVQPGGSLKLSCAASGIDFSRYWMSWVRRAPGKGLEWIGEINPDSSTINYAPSLKDEFIISRDNAKNTLYLQMSKVRSEDTALYYCAIFYYANYYAMDYWGQGTSVTVSSGGGGSGGGGSGGGGSDIVMTQSQKFMSTSVGDRVSVTCKASQNVDTNVAWYQQKPGQSPKALIYSASYRFSGVPDRFTGSGSGTDFTLTISNVQSEDLAEYFCQQYNGYPFTFASGTKLEIK[human IgG1 Fc with C220S (EU numbers) not spelt out]
B7: BCMA-mAb07 (Fc fusion)
scFv: QVQLQQSGAELAKPGASVKLSCKASGYTFTDYWTHWVKQRPGQGLEWIGYINHGSGYTKYNQKFKDKATLTADKSSSTAYMQVSSLTYEDSAVYYCARLTGSYYFDYWGQGTTLTVSSGGGGSGGGGSGGGGSQIVLTQSPAIMSASPGEKVTMTCSASSSVSYMHWYQQKSGTSPKRWIYDTSKLASGVPPRFSGSGSGTSYSLTISSMEAEDAATYYCQQWSSNPLTFGAGTKLELK[human IgG1 Fc with C220S (EU numbers) not spelt out]

target: T1, human BCMA on cells; test: FACS, U266 cells
Description: The desired cells were scale-up cultured in T-75 cell culture flasks to the logarithmic growth phase, and the cells were pipetted into a single cell suspension. After the cells were counted, the cells were centrifuged and the cell pellet was resuspended in FACS buffer (PBS+2% fetal calf serum) to 2×10⁶ cells per ml, and the suspension was added to the 96-well FACS reaction plate at 50 μl per well, then the sample to be tested of the chimeric antibody was added at 50 μl per well and the mixture was incubated at 4° C. for 1 h. The obtained mixture was centrifuged and washed 3 times with a PBS buffer. […] The obtained mixture was centrifuged and washed 3 times with a PBS buffer. 100 μl of the mixture was taken for detection and result analysis by FACS (FACS Canto™, purchased from BD Company). Data analysis was performed by software (FlowJo) to obtain the mean fluorescence intensity (MFI) of the cells. Then, a software (GraphPad Prism8) was used for analysis, data fitting and EC50 calculation. The results are shown in Table 10 and FIGS. 10A-10B, FIGS. 11A-11B, and FIGS. 12A-12B. All seven chimeric antibodies bind to three types of BCMA-expressing endogenous cells.

Binder | EC50 | Maximum mean fluorescence intensity
B1 | 5.46 nM | 3500
B2 | 8.51 nM | 3720
B3 | 20.5 nM | 3070
B4 | 32.2 nM | 2850
B5 | 16 nM | 3760
B6 | 3.23 nM | 4550
B7 | 11.3 nM | 4180

target: T2, human BCMA-His protein; test: ELISA, human BCMA-His coated; Ab 1 nM
Description: (§1) The specific method was as follows: Human BCMA protein (purchased from Acro, catalog number: BCA-H522y) and monkey BCMA protein (purchased from Acro, catalog number: BCA-C52H7) were diluted with PBS to a final concentration of 1 μg/mL, respectively, and then added to a 96-well ELISA plate at 50 μl/well. The plate was sealed with a plastic film and incubated overnight at 4° C., the plate was washed twice with PBS the next day, and then a blocking solution [PBS+2% (w/v) BSA] was added for blocking at room temperature for 2 h. The blocking solution was discarded, the plate was washed 3 times with PBS, and 100 nM BCMA human-mouse chimeric antibody diluted gradiently or control antibody was added at 50 μl/well. After incubation at 37° C. for 2 h, the plate was washed 3 times with PBS. HRP (horseradish peroxidase)-labeled secondary antibody (purchased from Merck, catalog number: AP113P) was added, and incubated at 37° C. for 1 h, and the plate was washed 5 times with PBS. TMB substrate was added at 50 μl/well, and incubated at room temperature for 10 min, then a stop solution (1.0 M HCl) was added at 50 μl/well. The OD450 nm values were read by an ELISA microplate reader (Multimode Plate Reader, EnSight, purchased from Perkin Elmer). The results are shown in Table 7, Table 8 and FIGS. 7A-7B and FIG. 8A-8B. All chimeric antibodies have good binding activity with human BCMA protein; except that BCMA-mAb06 has no cross-binding activity with monkey BCMA protein and BCMA-mAb07 has weak binding to monkey BCMA protein, other chimeric antibodies have good binding activity with monkey BCMA protein. The IgG subtype control is human IgG1.

Binder | OD450
B1 | 1.76
B2 | 1.01
B3 | 1
B4 | 1.31
B5 | 2.25
B6 | 2.26
B7 | 2.29

target: T3, monkey BCMA-His protein (monkey, UniProt A0A2K5UD97 1-53); test: ELISA, monkey BCMA-His coated; Ab 1 nM
T3 construct: bought; monkey species not further stated for this product; also called monkey BCMA protein
Description: as §1

Binder | OD450
B1 | 2.08
B2 | 1.32
B3 | 1.73
B4 | 1.85
B5 | 1.87
B6 | 0.15

target: T2, human BCMA-His protein; test: ELISA, human BCMA-His coated; Ab 0.01 nM
Description: as §1

Binder | OD450
B1 | 0.1
B2 | 0.06
B3 | 0.09
B4 | 0.11
B5 | 0.31
B6 | 0.4
B7 | 0.43

target: T3, monkey BCMA-His protein; test: ELISA, monkey BCMA-His coated; Ab 100 nM
T3 sequence (A0A2K5UD97 entry or part of it limits assumed): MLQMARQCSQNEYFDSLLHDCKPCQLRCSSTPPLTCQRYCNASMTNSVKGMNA
Description: as §1

Binder | OD450
B1 | 2.73
B2 | 2.56
B3 | 3.06
B4 | 2.95
B5 | 2.99
B6 | 0.81

target: T3, monkey BCMA-His protein; test: ELISA, monkey BCMA-His coated; Ab 0.01 nM
Description: as §1

Binder | OD450
B1 | 0.19
B2 | 0.08
B3 | 0.19
B4 | 0.27
B5 | 0.1
B6 | 0.07

target: T3, monkey BCMA-His protein; test: ELISA, monkey BCMA-His coated; Ab 0.001 nM
Description: as §1

Binder | OD450
B1 | 0.07
B2 | 0.05
B3 | 0.1
B4 | 0.15
B5 | 0.06
B6 | 0.05

target: T3, monkey BCMA-His protein; test: ELISA, monkey BCMA-His coated; Ab 0.0001 nM
Description: as §1

Binder | OD450
B1 | 0.06
B2 | 0.05
B3 | 0.08
B4 | 0.1
B5 | 0.05
B6 | 0.05

target: T1, human BCMA on cells; test: cell ELISA, Flp-inCHO-human BCMA cells; Ab 0.02 nM
From the text: The specific method was as follows: The required cells were scale-up cultured in a T-75 cell culture flask to the logarithmic growth phase, the medium was aspirated, the cells were washed twice with a PBS buffer, and then digested with trypsin. Then the digestion was terminated with a complete medium, and the cells were pipetted to obtain a single cell suspension. After the cells were counted and centrifuged, the cell precipitate was resuspended to 4×10⁵ cells per milliliter with a complete medium, and the suspension was added to a 96-well flat-bottomed cell culture plate at 100 μl/well, and cultured overnight in a 37° C., 5% carbon dioxide incubator. On the next day, the medium in the 96-well plate was discarded, the cells were washed once with PBS, and then fixed at room temperature for 0.5 h with an immunostaining fixative (purchased from Beyotime, catalog number: P0098-500 ml) at 50 μl/well. A blocking solution [PBS+5% (w/v) skim milk] was added for blocking at room temperature for 2 h. The blocking solution was discarded, the plate was washed 3 times with PBS, and 100 nM BCMA human-mouse chimeric antibody diluted gradiently or control antibody was added at 50 μl/well. After incubation at 37° C. for 2 h, the plate was washed 3 times with PBS. HRP (horseradish peroxidase)-labeled secondary antibody (purchased from Merck, catalog number: AP113P) was added, and incubated at 37° C. for 1 h, and the plate was washed 5 times with PBS. TMB substrate was added at 50 μl/well, and incubated at room temperature for 10 min, then a stop solution (1.0 M HCl) was added at 50 μl/well. The OD450 nm values were read by an ELISA microplate reader (Multimode Plate Reader, EnSight, purchased from Perkin Elmer). The chimeric antibodies bind well to Flp-inCHO-human BCMA cells. The IgG subtype control is human IgG1.

Binder | OD450
B1 | 0.13
B2 | 0.11
B3 | 0.11
B4 | 0.11
B5 | 0.15
B6 | 0.15
B7 | 0.12
